{
  "source": "paper PMC4336329",
  "about": "(PLoS ONE, 2015)",
  "note": "Out of some 310,000 compounds screened, about 14,000 (4.5%) showed an effect of 50% or more. The effect is printed as a negative number. The list shows a part of the results.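 Note: peak tail current of the secondary pulse compared with the same well before compound.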",
  "data": [
    {"molecular_target": "human ether-à-go-go-related gene (hERG) potassium channel (human, UniProt Q12809)", "sequence (Q12809 whole entry, looked up)": "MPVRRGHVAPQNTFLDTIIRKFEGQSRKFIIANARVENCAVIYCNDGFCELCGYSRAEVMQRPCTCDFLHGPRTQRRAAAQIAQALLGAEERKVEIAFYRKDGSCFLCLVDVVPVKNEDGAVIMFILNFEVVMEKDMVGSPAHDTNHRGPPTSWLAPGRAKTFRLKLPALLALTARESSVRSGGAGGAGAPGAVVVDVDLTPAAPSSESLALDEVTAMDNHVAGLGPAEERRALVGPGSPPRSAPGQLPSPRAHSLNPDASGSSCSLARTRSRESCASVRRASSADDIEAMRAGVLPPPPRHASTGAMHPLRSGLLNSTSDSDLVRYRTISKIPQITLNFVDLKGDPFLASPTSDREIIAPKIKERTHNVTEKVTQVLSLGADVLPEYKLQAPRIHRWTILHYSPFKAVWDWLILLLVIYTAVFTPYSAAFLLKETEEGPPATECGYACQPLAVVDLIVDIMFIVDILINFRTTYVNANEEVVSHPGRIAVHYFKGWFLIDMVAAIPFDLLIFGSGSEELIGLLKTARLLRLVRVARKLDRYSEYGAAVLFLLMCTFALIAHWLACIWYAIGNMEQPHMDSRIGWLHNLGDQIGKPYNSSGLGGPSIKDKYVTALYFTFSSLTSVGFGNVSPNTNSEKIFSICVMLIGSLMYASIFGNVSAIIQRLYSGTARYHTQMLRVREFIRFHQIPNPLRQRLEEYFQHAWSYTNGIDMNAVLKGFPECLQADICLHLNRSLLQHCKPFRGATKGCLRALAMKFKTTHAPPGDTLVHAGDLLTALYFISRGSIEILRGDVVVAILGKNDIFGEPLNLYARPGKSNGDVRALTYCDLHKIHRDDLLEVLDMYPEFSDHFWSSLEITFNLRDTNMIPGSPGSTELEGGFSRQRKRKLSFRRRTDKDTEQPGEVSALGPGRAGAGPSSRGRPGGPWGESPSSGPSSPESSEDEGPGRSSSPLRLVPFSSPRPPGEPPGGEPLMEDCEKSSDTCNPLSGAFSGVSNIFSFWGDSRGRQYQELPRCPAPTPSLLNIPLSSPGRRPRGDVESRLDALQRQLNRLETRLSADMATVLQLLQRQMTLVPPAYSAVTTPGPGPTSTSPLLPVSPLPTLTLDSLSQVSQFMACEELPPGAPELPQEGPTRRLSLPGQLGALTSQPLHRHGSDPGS", "assay": "primary screen, population patch clamp on CHO cells stably expressing hERG", "units": {"hERG current change (%, negative = inhibition) at 10uM": "%"}, "values": [
      {"smiles": "COC(=O)c1ccc(CSCC(=O)Nc2cc(OC)cc(OC)c2)o1", "hERG current change (%, negative = inhibition) at 10uM": 3.05},
      {"smiles": "O=C(/C=C/c1cccc([N+](=O)[O-])c1)NCc1ccco1", "hERG current change (%, negative = inhibition) at 10uM": -33},
      {"smiles": "CC(C)(C)NC(=O)C(c1ccco1)N(Cc1ccc2c(c1)OCO2)C(=O)Cn1nnc2ccccc21", "note": "(centres unmarked)", "hERG current change (%, negative = inhibition) at 10uM": 1.72},
      {"smiles": "O=C(NC(=S)NNC(=O)c1ccco1)c1ccccc1", "hERG current change (%, negative = inhibition) at 10uM": 21.8},
      {"smiles": "CC(C)c1ccccc1-n1c(SCc2cc(=O)oc3ccc4ccccc4c23)nnc1-c1cccnc1", "hERG current change (%, negative = inhibition) at 10uM": -2.39},
      {"smiles": "O=S(=O)(Nc1ccc(-c2ccc3nncn3n2)cc1)c1cccc(F)c1", "hERG current change (%, negative = inhibition) at 10uM": 18.1},
      {"smiles": "COc1ccc(C(=O)NCc2ccncc2)cc1S(=O)(=O)NCc1ccc(Cl)cc1", "hERG current change (%, negative = inhibition) at 10uM": -16.4},
      {"smiles": "N#Cc1cc(C#N)c(N2CCN(c3ccccn3)CC2)nc1N", "hERG current change (%, negative = inhibition) at 10uM": -15.7},
      {"smiles": "CCOc1ccc(N(CC(=O)NCc2ccc(OC)cc2)S(=O)(=O)c2c(C)noc2C)cc1", "hERG current change (%, negative = inhibition) at 10uM": 0.901},
      {"smiles": "Cc1ccc(-n2nc3ccc(NC(=O)c4ccco4)cc3n2)cc1", "hERG current change (%, negative = inhibition) at 10uM": -12.4},
      {"smiles": "O=C(c1ccc(COc2ccccc2[N+](=O)[O-])o1)N1CCCCC1", "hERG current change (%, negative = inhibition) at 10uM": -25.7},
      {"smiles": "O=c1oc2c(CN3CCN(CCO)CC3)c(O)ccc2cc1-c1ccccn1", "hERG current change (%, negative = inhibition) at 10uM": -5.42},
      {"smiles": "CCc1ccc2oc(C(=O)Nc3cccnc3)c(C)c2c1", "hERG current change (%, negative = inhibition) at 10uM": 6.64},
      {"smiles": "Cc1ccc(NC(=O)COC(=O)Cc2c[nH]c3ccccc23)cc1C", "hERG current change (%, negative = inhibition) at 10uM": -7.15},
      {"smiles": "NC(=O)c1nsc(C(=O)N(c2ccccc2F)C(C(=O)NCc2ccc(F)cc2)c2ccc(O)cc2)c1N", "note": "(centres unmarked)", "hERG current change (%, negative = inhibition) at 10uM": -2.97},
      {"smiles": "O=C(O)CCCCCNc1nc(=S)[nH]c2ccccc12", "hERG current change (%, negative = inhibition) at 10uM": 16},
      {"smiles": "COc1ccccc1C(=O)NC(C)C(c1cccs1)N1CCN(C)CC1", "note": "(centres unmarked)", "hERG current change (%, negative = inhibition) at 10uM": -0.154},
      {"smiles": "CC1CC2(CC(C)(C(=O)CSc3nc4ccccc4s3)OC2=O)C(=O)O1", "note": "(centres unmarked)", "hERG current change (%, negative = inhibition) at 10uM": -1.16},
      {"smiles": "CC1(C)Oc2ccc(C#N)cc2[C@@H](N2CCCC2=O)[C@@H]1O", "hERG current change (%, negative = inhibition) at 10uM": -3.29},
      {"smiles": "COc1ccccc1C(=O)Nc1ccc2c(c1)CN(C(=O)CSC)CC2", "hERG current change (%, negative = inhibition) at 10uM": -5.94},
      {"smiles": "COc1ccc(CCN=Cc2c(C)[nH]n(-c3ccc([N+](=O)[O-])cc3)c2=O)cc1OC", "hERG current change (%, negative = inhibition) at 10uM": 16.4},
      {"smiles": "O=C(CNC(=O)c1cccc(F)c1)N/N=C/c1ccc([N+](=O)[O-])s1", "hERG current change (%, negative = inhibition) at 10uM": -31.1},
      {"smiles": "Cc1nnc(SCC(=O)NNC(=O)COc2ccc(Cl)cc2)s1", "hERG current change (%, negative = inhibition) at 10uM": -3.91}
    ]}
  ]
}
